Structures are written as SMILES. About 14,000 (4.5%) of roughly 310,000 compounds showed an effect of 50% or more. Effects have a minus sign here. The list shows a part of the results.
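Note: peak tail current of the secondary pulse compared with the same well before compound.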

Sequence of human ether-à-go-go-related gene (hERG) potassium channel (Q12809 whole entry, looked up): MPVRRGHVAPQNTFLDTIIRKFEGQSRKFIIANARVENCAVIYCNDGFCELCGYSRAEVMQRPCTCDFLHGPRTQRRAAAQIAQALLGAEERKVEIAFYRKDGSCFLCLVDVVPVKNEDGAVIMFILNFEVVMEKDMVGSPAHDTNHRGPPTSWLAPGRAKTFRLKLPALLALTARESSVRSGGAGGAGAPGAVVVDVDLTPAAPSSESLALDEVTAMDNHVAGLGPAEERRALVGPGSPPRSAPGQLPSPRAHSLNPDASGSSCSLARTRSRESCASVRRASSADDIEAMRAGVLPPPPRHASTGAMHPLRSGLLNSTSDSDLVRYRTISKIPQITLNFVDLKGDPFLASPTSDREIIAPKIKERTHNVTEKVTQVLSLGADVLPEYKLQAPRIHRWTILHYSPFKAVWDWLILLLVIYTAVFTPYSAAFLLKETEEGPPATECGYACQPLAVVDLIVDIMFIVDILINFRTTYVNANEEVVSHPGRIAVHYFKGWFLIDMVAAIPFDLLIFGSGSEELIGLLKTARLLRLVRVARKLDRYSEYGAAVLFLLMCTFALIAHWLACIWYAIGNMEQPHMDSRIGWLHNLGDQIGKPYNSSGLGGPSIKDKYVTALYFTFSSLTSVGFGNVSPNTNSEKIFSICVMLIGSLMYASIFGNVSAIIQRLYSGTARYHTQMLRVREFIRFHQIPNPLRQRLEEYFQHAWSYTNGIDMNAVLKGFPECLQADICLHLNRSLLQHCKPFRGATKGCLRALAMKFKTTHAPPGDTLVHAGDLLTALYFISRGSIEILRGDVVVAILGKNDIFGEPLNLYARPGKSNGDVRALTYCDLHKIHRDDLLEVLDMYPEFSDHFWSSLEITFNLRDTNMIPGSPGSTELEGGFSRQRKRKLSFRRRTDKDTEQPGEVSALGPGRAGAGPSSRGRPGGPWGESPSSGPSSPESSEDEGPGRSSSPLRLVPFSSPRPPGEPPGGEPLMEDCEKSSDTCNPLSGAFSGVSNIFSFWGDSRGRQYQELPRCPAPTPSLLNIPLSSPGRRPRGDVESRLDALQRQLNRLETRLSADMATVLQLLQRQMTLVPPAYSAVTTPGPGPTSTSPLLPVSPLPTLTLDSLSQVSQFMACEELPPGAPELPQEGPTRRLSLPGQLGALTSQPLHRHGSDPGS

This assay addresses human ether-à-go-go-related gene (hERG) potassium channel (human, UniProt Q12809). Kind of assay: primary screen, population patch clamp on CHO cells stably expressing hERG.
As to `CCNc1c([N+](=O)[O-])ncn1C`, the “hERG current change (%, negative = inhibition) at 10uM” value was -4.43%.
On to `Cc1ccsc1/C=N/N1CCN(c2ccccc2)CC1`, for which the “hERG current change (%, negative = inhibition) at 10uM” value was determined as 3.82%.
On to `COc1ccccc1NC(=O)N[C@@H](Cc1c[nH]c2ccccc12)C(=O)NN`, for which the “hERG current change (%, negative = inhibition) at 10uM” value is on record as 6.25%.
As to `COC(=O)Cc1ccc(NC(=S)N2CCN(c3cc(Cl)ccc3C)CC2)cc1`, the “hERG current change (%, negative = inhibition) at 10uM” value is recorded as 12.3%.
The figure for `COc1cc(F)ccc1S(=O)(=O)N1CCN(C23CC4CC(CC(C4)C2)C3)CC1` is -36.1%; for `COc1ccc(NC(=O)CC2SC(=NCC3CCCO3)NC2=O)c([N+](=O)[O-])c1` (centres unmarked) it is 1.17%.
As to `CC(C)Sc1oc(-c2ccco2)nc1S(=O)(=O)c1ccc(F)cc1`, the “hERG current change (%, negative = inhibition) at 10uM” value was -11.4%.
The figure for `CCc1ccc(N(C(=O)c2snc(C(N)=O)c2N)C(C(=O)NCCC(C)C)c2c[nH]c3ccccc23)cc1` (centres unmarked) is 3.62%.
The figure for `Nc1ncc(-c2cc3ccccc3oc2=O)s1` is 4.52%.
As for `COC(=O)Nc1ccc(S(=O)(=O)N2CCC(Cc3ccccc3)CC2)cc1`, the figure is 1.4%; as for `C/C(=N\NC(=O)c1ccn(C)n1)c1ccco1`, 16.6%.
Turning to `CC(C)c1ccc(-n2c(O)c(/C=N/N3CCOCC3)c(=O)[nH]c2=S)cc1`, the “hERG current change (%, negative = inhibition) at 10uM” value is listed as -10.9%.
`COc1cc(/C=C2/C(=N)N3OC(C)=CC3=NC2=O)ccc1OCCOc1ccc(C)cc1`: the “hERG current change (%, negative = inhibition) at 10uM” value was 20%.
The figure for `CC(C)CNc1oc(-c2ccc(F)cc2)nc1C#N` is 3.91%.
For the compound `COc1ccccc1/C=C/C(=O)OCC(=O)N1CCc2ccccc21`, the “hERG current change (%, negative = inhibition) at 10uM” value turned out to be 1.68%.
As for `COC(=O)C1=C[C@@H](C(=O)OC)[C@@H]2C3=C(C(=O)C2(C)C)[C@H](c2ccccc2)[C@@H]2C(=O)N(C)C(=O)[C@@H]2[C@@H]3C1`, the figure is 7.08%.
Regarding `CSc1cccc(N2C(=O)C3CCCN3C2=S)c1` (centres unmarked), the “hERG current change (%, negative = inhibition) at 10uM” value is given as 16.6%.
For `CCS(=O)(=O)N1CCN(S(=O)(=O)c2ccc(Cl)s2)CC1`, the “hERG current change (%, negative = inhibition) at 10uM” value is given as 8.16%.
The figure for `O=C(Nn1c(C2CCCCC2)nc2ccccc2c1=O)c1ccc(Cl)c([N+](=O)[O-])c1` is -9.26%; for `Cc1ccc(CN2CC(C(=O)N(C)CC(=O)Nc3cccc(F)c3)CC2=O)cc1` (centres unmarked) it is -7.16%; for `COc1cc(/C=N/NC(=O)c2ccccn2)ccc1OC(=O)c1ccccc1Br` it is -1.22%.
As for `COc1cccc(NC(=O)c2ccco2)c1`, the figure is 8.44%; as for `CCn1c(=O)c2ccccc2n2c(SCC(=O)N3CCc4ccccc4C3)nnc12`, -32.7%.
As for `CSCc1ccc(C(=O)NC2CC(C)(C)Cc3c2cnn3-c2ccc(F)cc2)o1` (centres unmarked), the figure is -56.5%; as for `O=C1C(=O)N(Cc2cccnc2)C(c2ccccn2)/C1=C(/O)c1ccc(F)cc1` (centres unmarked), 7.66%.
For the compound `COc1cccc(C2=CC(=O)C[C@H](c3ccc(Cl)cc3)C2)c1OC`, the “hERG current change (%, negative = inhibition) at 10uM” value is on record as 19.1%.
As for `COc1ccc(O)c(C(=O)c2cnn(C(=O)c3cccc(S(=O)(=O)N4CCOCC4)c3)c2)c1`, the figure is 12.4%; as for `CCN(CC)C(=O)c1cncc(C(=O)N(CC)CC)c1-c1ccccc1`, -4.08%.
For `CN(C)c1cccc(C(=O)Nc2cc(C(F)(F)F)ccc2-n2cnc3ccccc32)c1`, the “hERG current change (%, negative = inhibition) at 10uM” value is on record as -18.6%.
As for `Cc1ccccc1C(=O)NCCCNC(=O)c1cnccn1`, the “hERG current change (%, negative = inhibition) at 10uM” value is 13.5%.
For `Cc1ccc(OC2CCN(C(=O)C3CCC(=O)N(C4CC4)C3)CC2)cc1` (centres unmarked), the “hERG current change (%, negative = inhibition) at 10uM” value was -15.8%.
As for `Cc1[nH]c2ccccc2c1/C=N/NC(N)=S`, the figure is 2.1%; as for `NC(=O)C1(N2CCCCC2)CCN(CC(=O)Nc2ccc(Oc3ccccc3)cc2)CC1`, -67.8%; as for `Cc1csc(NC(=O)CSC2=NS(=O)(=O)c3cc(F)ccc3N2)n1`, 11.2%.
The figure for `O=C(Nc1ccccc1Oc1ccsc1C(=O)O)c1ccccc1F` is 17.9%.
The figure for `CC(C)(C)OC(=O)N1Cc2cc3ccccc3nc2C1CO` (centres unmarked) is 8.85%; for `CCc1c(C)sc(NC(=S)Nc2nc(C)cc(C)n2)c1C(=O)OC` it is 27.1%; for `CCCCCCCCOC(=O)CCc1c(C)[nH]c(=S)[nH]c1=O` it is 5.35%.
As to `CC(C)CN(C(=O)CSc1nncs1)c1c(N)n(CC(C)C)c(=O)[nH]c1=O`, the “hERG current change (%, negative = inhibition) at 10uM” value turned out to be 17.5%.
The figure for `COc1ccc2[nH]c(=O)c(CN(C(C)=O)c3ccc(C)cc3C)cc2c1` is 1.02%; for `O=C(O)CCCn1cc(NC(=O)COc2ccc(F)cc2F)cn1` it is 13.6%.
Take `CN(C(=O)COC(=O)/C=C/c1ccc(C(F)(F)F)cc1)C1CCS(=O)(=O)C1` (centres unmarked): the “hERG current change (%, negative = inhibition) at 10uM” value was 9.35%.
As for `CC(OC(=O)c1cccc(N2C(=O)c3ccccc3C2=O)c1)C(=O)Nc1ccc(N(C)C)cc1` (centres unmarked), the “hERG current change (%, negative = inhibition) at 10uM” value was 13.2%.
Take `O=Cc1cnc2ccccc2c1-c1ccccc1`: the “hERG current change (%, negative = inhibition) at 10uM” value is listed as -19.1%.
As for `CN1CCN(C2=Nc3c(Cl)cc(Cl)c4cccc2c34)CC1`, the figure is 5.23%.
For the compound `COc1cc2ccccc2cc1C(=O)N1CCN(c2ccccc2O)CC1`, the “hERG current change (%, negative = inhibition) at 10uM” value is recorded as -59.7%.
In the case of `CCCCCOc1ccc(NS(C)(=O)=O)cc1`, the “hERG current change (%, negative = inhibition) at 10uM” value is -5.55%.
The figure for `CCn1cc(C(=O)OCC(=O)Nc2ccc(S(=O)(=O)N3CCCC3)cc2)c(=O)c2ccc(C)nc21` is 10.5%.
The figure for `CC(C)(C)NC(=O)COC(=O)c1ccc(Cl)nc1` is 3.55%; for `COCCOc1cc(NC(=O)c2cccc(OC)c2)c(Cl)cc1Cl` it is 6.22%.
`CC1=NOC2(C1)/C(=N/O)CCC/C2=N\O` (centres unmarked): the “hERG current change (%, negative = inhibition) at 10uM” value was 9.67%.
Regarding `CN(C)/C=C1\NC(=S)N(c2ccccc2)C1=O`, the “hERG current change (%, negative = inhibition) at 10uM” value turned out to be 28.4%.
`Cc1oc(-c2ccccc2F)nc1CSCC(=O)NC1CCC(C)CC1` (centres unmarked): the “hERG current change (%, negative = inhibition) at 10uM” value is listed as -25.6%.
The figure for `CC1=C(C(=O)OCC2CCCO2)C(c2ccccc2)C2=C(CCCC2=O)N1` (centres unmarked) is 11.2%.
Regarding `O=C(Oc1ccc(Cl)c2cccnc12)c1cccc([N+](=O)[O-])c1`, the “hERG current change (%, negative = inhibition) at 10uM” value is given as -6.11%.
As for `Cc1c(C(=O)NC2CCC(C)CC2)oc2ccccc12` (centres unmarked), the figure is 4.77%.
The figure for `COc1ccc(NC(=O)CN(C)C(=O)CCCc2nc3ccccc3s2)cc1` is -27.7%.
`N#Cc1cnn2ccc(-c3ccc4c(c3)CCC4)nc12`: the “hERG current change (%, negative = inhibition) at 10uM” value came out at 14.4%.
Consider `CC(=O)c1c(C)[nH]c(C(=O)Nc2ccc(Cl)c(S(=O)(=O)N(C)C)c2)c1C`, for which the “hERG current change (%, negative = inhibition) at 10uM” value is -15.6%.
As for `CCC1C(=O)N=C(SCC(=O)Nc2ccccc2)NC1=O` (centres unmarked), the figure is 7.99%.
Consider `CSc1cnn(Cc2ccccc2)c(=O)c1SCc1ccccc1`, for which the “hERG current change (%, negative = inhibition) at 10uM” value is given as -9.54%.
The figure for `Nc1n[nH]c(C2CCCCC2)n1` is 17.7%.
Regarding `O=[N+]([O-])c1ccc2c(c1)Nc1nc3ccccc3nc1N2`, the “hERG current change (%, negative = inhibition) at 10uM” value worked out at 12.8%.
The figure for `Cn1c(Cc2ccccc2)nnc1SCC(=O)Nc1cccc(S(=O)(=O)NC2=NCCCCC2)c1` is -14.8%.
The figure for `Cc1ccc(NC(=O)NC2CCCc3ccccc32)cc1` (centres unmarked) is -4.06%; for `COc1ccc(C(=O)N2CCN(Cc3cc(OC)ccc3OC)CC2)cc1.O=C(O)C(=O)O` it is -36%.
Take `Cc1ccc(OCC(=O)NC(=S)Nc2ccc(Br)cn2)cc1`: the “hERG current change (%, negative = inhibition) at 10uM” value was 9.16%.
As for `CCn1nc(NS(=O)(=O)c2ccc(C)cc2)c2cc3ccccc3nc21`, the figure is 1.64%; as for `COc1cccc(C2(O)CCN(C(=O)Cc3cccnc3)CC2)c1`, 15.9%.
The figure for `Cc1ccccc1NC(=O)c1sc2nc[nH]c(=O)c2c1C` is 3.94%; for `CCOC(=O)c1c(-c2ccccc2)oc2ccc(OCC(O)CNCCN(C)C)cc12` (centres unmarked) it is -21.6%; for `CCOC(=O)c1c(NC(=O)CN2CCN(C(=O)c3ccco3)CC2)sc(C(N)=O)c1C` it is -20.1%.
The figure for `CCC(=O)Nc1c(C)c(CC)nc2ccccc12` is -9.49%; for `COC(=O)NNC(=S)NCc1ccccc1` it is 8.48%; for `Cc1ccc(NC(=O)CSc2n[nH]c(-c3ccncc3)n2)cc1C` it is 10.5%.
As for `CCCCN(CCCC)S(=O)(=O)c1ccc(C(=O)Nc2nnc(CSC)o2)cc1`, the “hERG current change (%, negative = inhibition) at 10uM” value is recorded as -3.41%.
Regarding `CC1CCCCC1NC(=O)CSC1=Nc2ccccc2C2CC=NN12` (centres unmarked), the “hERG current change (%, negative = inhibition) at 10uM” value is recorded as -2.41%.
For `Cn1c(Cn2c(=O)sc3ccccc32)nnc1SCC(=O)NCCc1ccccc1`, the “hERG current change (%, negative = inhibition) at 10uM” value is listed as -13.2%.
As for `O=C(c1ccc(Cn2c(=S)[nH]c3cc4c(cc3c2=O)OCO4)cc1)N1CCN(c2ncccn2)CC1`, the figure is 2.15%.
`Cc1cc(=O)oc2cc3c(cc12)CCCN3`: the “hERG current change (%, negative = inhibition) at 10uM” value is 20.7%.
The figure for `COc1ccc(-c2ccc(F)cc2)cc1[C@H]1[C@H]2C=CC[C@@H](C)[C@@H]2C(=O)N1Cc1ccccc1` is 8.24%; for `C=CCc1ccccc1OCCNCCCOC.O=C(O)C(=O)O` it is -1.3%; for `COc1ccc2ccc(C(C)(C(C)=O)C(=O)OC(C)C)cc2c1` (centres unmarked) it is 1.48%.
The figure for `O=C(Nc1ccccc1)/C(=C/c1cccnc1)NC(=O)c1ccco1` is -4.49%; for `Nc1c(C(=O)NCc2ccccc2)nnn1Cc1cccc(Cl)c1` it is 12.8%; for `CSC1=NCCN1C(=O)c1cccc(Br)c1` it is -11.2%.
In the case of `CCOC(=O)CNC(=S)N(Cc1ccccc1)Cc1ccccc1F`, the “hERG current change (%, negative = inhibition) at 10uM” value is given as -16.2%.
As for `Br.CCOCc1cn(CC(=O)c2ccc([N+](=O)[O-])cc2)c(C)nc1=N`, the figure is -17.8%.
The figure for `Clc1ccc(-c2cn3ccccc3n2)cc1` is -4.25%.

(Values after publication PMC4336329 (PLoS ONE, 2015).)
